# PubChem BioAssay AID1345083 (National Center for Advancing Translational Sciences (NCATS), 2018)
# Hit rate of the full screen: of about 94,000 compounds, about 6,200 (6.6%) were called active. The inconclusive results got no clear call from the source; some entries with a clear call stand among them for comparison. The call rests on the fitted dose curve; in most records, active means well fitted inhibition curve with a large enough effect; inconclusive means small, poorly fitted or top-dose-only effect; inactive means flat fitted curve, though single readings scatter. Potencies beside an inconclusive call are fits to weak or partial responses and may not hold up.
# Assay: Cytotoxic Profiling in HEK 293 Cell Line of Diverse Libraries Using Quantitative High-Throughput Screening; further: nearly all actives have a fitted effect of over 60% in size
# Details: HEK 293 viability, ATP luminescence (CellTiter-Glo), 48-72 h; activity change, negative = cytotoxicity: at 115 µM (top of the series) unless noted; series mostly up to 115 µM
# Procedure, shortened: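 Cells seeded first (HEK 293, 250 cells/well), then compound added by pintool. Incubation ran 48 or 72 hr at 37 degree Celsius. CellTiter-Glo was added and luminescence imaged after 10 min at room temperature.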
# On the % scale 0 is the no-effect control and ±100 the full control effect; potency means the concentration at half of the fitted maximal effect; tags describe the fitted curve by direction and shape.
Structure (SMILES),Potency,"activity change, negative = cytotoxicity",outcome
Cc1ccc(Nc2ccnc(N3CCCC(C(=O)NCc4cccc(F)c4)C3)n2)cc1 (stereo not given),active: 50.1 µM,–,–
COc1ccc(C(=O)N2CCOC(Cc3cccc(C(F)(F)F)c3)C2)o1 (stereo not given),"inconclusive: 39.8 µM [inhibitor, full curve, poor fit]",–,–
COc1ccc(-c2cc(CC3(NCC(C)(C)C)COC3)no2)cc1,"inconclusive: 100 µM [inhibitor, partial curve, poor fit]",–,–
CN1CCc2[nH]nc(C(=O)N3CCC4(CC3)c3nc[nH]c3CCN4C)c2C1,–,inactive: -18.4%,–
Cc1cc2ncc(C(=O)NCC(F)F)cn2n1,–,–,inactive [at 172 µM]
CCC1=C(C(=O)OC)C(c2cccc(OC)c2)N2C(CC(=O)NCC3CCCO3)=CSC2=N1 (stereo not given),–,inactive: -17.5%,–
Cc1ccc(N2CC(c3noc(-c4cccc(N(C)C)c4)n3)CC2=O)cc1 (stereo not given),–,inactive: -16.8%,–
O=C(NCc1ccncc1)c1nc2c(o1)CCN(CCCc1ccccc1)CC2,"inconclusive: 100 µM [inhibitor, partial curve, poor fit]",–,–
CC(=O)NCCC(=O)N1Cc2ccccc2CC2(CCCN2CCc2ccc(C)cc2)C1 (stereo not given),–,inactive: -22.6%,–
O[C@@H]1C[C@@H](c2nc(Cc3ccccc3)no2)N(CCCc2ccccc2)C1,"inconclusive: 112 µM [inhibitor, single point]",–,–
CNC(=O)CCn1ncc2cc(OCc3ccccc3-c3cc(Cl)ccc3OC)ccc21,"inconclusive: 44.7 µM [inhibitor, partial curve, poor fit]",–,–
COc1ccc(-c2cc(CC3(NCc4ccco4)COC3)no2)cc1,"inconclusive: 126 µM [inhibitor, single point]",–,–
O=C(CCc1nc2ccccc2[nH]1)N1C[C@@H](CO)[C@H](c2ccccn2)C1,–,inactive: -6.51%,–
COc1ccc(-c2nc(C3CC3)nc3c2CCN(Cc2ccc(C#N)cc2)CC3)cc1,"inconclusive: 79.4 µM [inhibitor, partial curve]",–,–
c1ccc(CN2CCC(Nc3ncncn3)C2)cc1 (stereo not given),–,inactive: -7.16%,–
CN(C)CCNC(=O)C[C@@H]1CCNC[C@@H]1Cc1cc(-c2ccc(C(C)(C)C)cc2)on1,active: 31.6 µM,–,–
O=C(NC1CCCCC1)O[C@@H]1CO[C@H]2[C@@H]1OC[C@@H]2NC(=S)Nc1cccc2ccccc12,"inconclusive: 56.2 µM [inhibitor, partial curve, poor fit]",–,–
O=C(c1ccccc1F)N1CCc2nc(-c3ccccc3)nc(-c3ccc(Cl)cc3)c2C1,"inconclusive: 31.6 µM [inhibitor, full curve]",–,–
O=C(NC1CCN(c2ccc3nnc(C4CC4)n3n2)C1)c1ccc(C(F)(F)F)cc1 (stereo not given),–,inactive: -11.8%,–
O=C(c1cn[nH]c1)N1CC2(C1)CN([S+](=O)([O-])c1ccc(OC(F)(F)F)cc1)CC2COc1ccccc1 (stereo not given),"inconclusive: 56.2 µM [inhibitor, partial curve, poor fit]",–,–
